In the supplement of paper PMC10338343:
± gives the standard deviation. Whole data set: some 5,500 sequences, median “pre-steady-state target cleavage rate” near 0.1, cut for the highest 2% near 0.64. This is a selection; strong and weak results do not stand in their true shares.

The sequences below were run on MIWI (PIWIL1) piRISC loaded with piRNA #2 (30 nt) (assay: pre-steady-state target cleavage rate (min^-1); MIWI and MILI are mouse PIWI proteins and EfPiwi is from a freshwater sponge; tags in brackets are library labels; higher = faster piRNA-guided slicing of the target). Settings: guide: piRNA #2 5'p-UUAGGUAACCCAGUAGAUCCAGAGGAAUUC; auxiliary factor: 500 nM mouse GTSF1.
In short: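 A transcribed, DNA-blocked target RNA library (0.1 nM) and 1 nM active affinity-purified piRISC bearing one synthetic guide were incubated in HEPES–potassium acetate buffer at 33 °C for 0–8 or 0–960 min, either with or without 500 nM GTSF1 partner protein. Uncleaved targets were sequenced, normalised to depth and to weakly complementary targets, and pooled over three trials, with k3 capped at 0.0001 min^-1. The pre-steady-state cleavage rate was derived with a burst-and-steady-state fit.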

Row | Sequence | pre-steady-state target cleavage rate
1 | GAAAUCCUCUGGAUCUACUGGGUUACCAAA | 0.322 ± 0.067
2 | GAAUUCCUCUGGUUCUACUGCGUUACCUAA | 0.46 ± 0.045
3 | CUUUUCCUCUGGAUGUACUGGGAUACCUAA | 0.152 ± 0.02
4 | CUUAUCCUGUGGAUCUACUGGGUUAGCUAA | 0.0726 ± 0.018
5 | CUUAAGGACUGGAUCUUCUGGGUUACCUUA | 0.0155 ± 0.014
6 | CUUAUCCUCUGGAUGUACUGGGUUACGUAA | 0.519 ± 0.051
7 | GAAUUCCUCUGGAUCUACAGGGUUACCUUA | 0.17 ± 0.021
8 | CUAUUCCUCUGGAUCUACUGGGCUUACCUAA | 0.0845 ± 0.021
9 | CAAUUCCUCUGGAUCUUCUGGGUUACCUUA | 0.331 ± 0.056
10 | CUUAAGCUCGGAUCUACUGGGUUACCUAA | 0.189 ± 0.062
11 | GAGAUUCCUCUGGAUCUACUGGGUUACCUAA | 0.149 ± 0.034
12 | CUUAAGCUCUGGAUCUACUGCGUAACCUAA | 0.0706 ± 0.022
13 | CAAUUCCUCUGGAUCUACACGGUUACCUAA | 0.262 ± 0.035
14 | CUUAAGGUCUGGAUUCUACUGGGUUACCUAA | 0.126 ± 0.014
15 | CUUAAGCUCUGGAUGUUCUGGGUUACCUAA | 0.0899 ± 0.012
16 | CUUAAGGUCUGGAACUACUGCGUUACCUAA | 0.11 ± 0.056
17 | CAUUUCCUCUGGAUCUAGUGGGUUACCUAA | 0.219 ± 0.025
18 | CUUUUCCUCUGGAUCUACUGGGUUACCUUAA | 0.343 ± 0.052
19 | GAAUUCCUCUGGAUCUACUGGCUUUCCUAA | 0.0581 ± 0.019
20 | CUUAACCUGUGGAUCUUCUGGGUUACCUAA | 0.218 ± 0.037
21 | CUUUUCCUCUGGAUCUACUGGGUUAACCUAA | 0.429 ± 0.044
22 | CUUAUACCUCUGGAUCUACUGGGUUACCUAA | 0.389 ± 0.061
23 | CUUAACCUCUGGAUCUAGUGGGAUACCUAA | 0.0442 ± 0.0073
24 | CUUAACCACUGGAUCUACUGGGUUACCAAA | 0.289 ± 0.044

Row | Sequence | pre-steady-state target cleavage rate
25 | CUUAUCCUCAGGAUCUACUGGGUAACCUAA | 0.201 ± 0.04
26 | CAAUUCCUCAGGUUCUACUGGGUUACCUAA | 0.709 ± 0.054
27 | CUUAUCCUCUGGAUCUACUGGGUUACGCUAA | 0.538 ± 0.04
28 | CAAUUCCACUGGAUCUACUGGGUUACGUAA | 0.419 ± 0.081
29 | CUUAAGCUCUGCAUCAACUGGGUUACCUAA | 0.136 ± 0.023
30 | CUAUUCCUGUGCAUCUACUGGGUUACCUAA | 0.343 ± 0.028
31 | CUUAACCUCUGGAACUACUGGCUUACCUAA | 0.078 ± 0.011
32 | CUUAACCUCUGGAUCUACUGGCUUAGCUAA | 0.0132 ± 0.0047
33 | CUUAAGGACUGGAUCUACUGGGUUUCCUAA | 0.0405 ± 0.032
34 | CUAUUCCUCUGGAUCUUCUGGGUUACGUAA | 0.379 ± 0.042
35 | CUAUUCCUCUGCGAUCUACUGGGUUACCUAA | 0.428 ± 0.042
36 | CUUUUCCUCUGGAUCUACUCGGUAACCUAA | 0.024 ± 0.011
37 | GAAUUCCUCUGGAUCUACAGGGUUAGCUAA | 0.171 ± 0.019
38 | GAAUUCGUCUGGAUCUACUGGGUUACGUAA | 0.575 ± 0.087
39 | CUUAAGGACUGGAUGUACUGGGUUACGUAA | 0.193 ± 0.052
40 | CUUAAGGUCUGGAUCUACUGGGUUACGAAA | 0.0873 ± 0.014
41 | CUUAAGGAGUGGAUCUACUGGGUUCACCUAA | 0.0595 ± 0.01
42 | CAAUACCUCUGGAUCUACAGGGUUACCUAA | 0.219 ± 0.026
43 | CUAUUCCUGCUGGAUCUACUGGGUUACCUAA | 0.506 ± 0.043
44 | CUUUUCCUCUGGAUCUACUGGGUAACCUUA | 0.163 ± 0.036
45 | GUAUUCCUCUGGAUCUAGUGGGUUACCUAA | 0.025 ± 0.0079
46 | CUUAACCUCUGGAUCUACUGGGUCACCUAA | 0.0652 ± 0.011
47 | CUUAAGCUCUGGAACUACUGGGUUAGCUAA | 0.12 ± 0.018
48 | CUAUUCCUCUGCAUCUACUGGGUUAGCUAA | 0.277 ± 0.029

Row | Sequence | pre-steady-state target cleavage rate
49 | CUUUUCCUUGGAUCUACUGGGUUACCUAA | 0.429 ± 0.031
50 | CUUAAGGACAGGUUCUACUGGGUUACCUAA | 0.0257 ± 0.017
51 | CUUAAGGUCUGGAUCUACUGGGUAACCUUA | 0.0213 ± 0.0067
52 | CUAUUCCUCAGGAUCUACUGGGUUUCCUAA | 0.41 ± 0.055
53 | CUUUUCCACUGGAUCAACUGGGUUACCUAA | 0.429 ± 0.042
54 | CUUUUCCUCUGGAUCAACUGGGUAACCUAA | 0.122 ± 0.02
55 | CUUAAGCUCUGGAUCUAGUGGGUAACCUAA | 0.0215 ± 0.0067
56 | CUUAUCCUCUGGAUCUAGUGGGUUUCCUAA | 0.0946 ± 0.023
57 | GAAUUCCUCAGGAUCAACUGGGUUACCUAA | 0.521 ± 0.048
58 | CUUAACCUGUGGAUCUACUGGGUAACCUAA | 0.0751 ± 0.013
59 | CUUAUCCUCUGCAUCUACUGGGUUACCUUA | 0.195 ± 0.033
60 | CUUAAGCUCUGGAUCUACUGGCUAACCUAA | 0.00565 ± 0.0046
61 | CUUAAGGACUGGAUCUACUCGGUUACGUAA | 0.0478 ± 0.024
62 | CAAUUCCUCUGGUUCUACUGGGUUUCCUAA | 0.951 ± 0.36
63 | CUAUUCCUCUGGAUCUACUGGGUUACUUAA | 0.57 ± 0.045
64 | CUUAUCCUGACGAUCUACUGGGUUACCUAA | 0.0767 ± 0.014
65 | CUUAUCCUCUGCAACUACUGGGUUACCUAA | 0.239 ± 0.021
66 | CUAUUCCUCUGGAUCUACUGGGUUAGCAAA | 0.183 ± 0.044
67 | CUUAAGGUCUGGUUCUACUGGGUUUCCUAA | 0.0244 ± 0.0059
68 | CUUAAGGACAGGAUCAACUGGGUUACCUAA | 0.0169 ± 0.0069
69 | GAAUUCCUCUGGAUCUACUGCGUUACCAAA | 0.277 ± 0.059
70 | CUUAAGCUCUGGAUCUACUGGGUUACCUAA [g2:g24:cont:t1A] | 0.112 ± 0.026
71 | CAAUUGCUCUCGAUCUACUGGGUUACCUAA | 0.522 ± 0.043
72 | GAAAUGCUCUGGAUCUACUGGGUUACCUAA | 0.0468 ± 0.018
